# Data as given in the supplement of paper PMC8728848.
# Some of the results follow.
# B1: PX14375C-bth-509-28-509 (Bacteroides thetaiotaomicron) (protein)
# chain: RSPQGQFTEDDNPNALVNGKIYNVYTMMRSFDITAGTPAIAIHYLRSEDSEKGSIPSDGSDVAEMYDDFLYTPTNGLLGSYWGKNYAIIYQCNDILDAIAEKETAGQTETEDIINKGEASFFRAYCYFNLVRAFGEVPLVTYKINDASEANIPKTTADKIYEQIDTDLKTAEESLPETWSTEYTGRLTWGAARSLHARTYMMRSDWDNMYKASTDVINKGLYNLKTPYNEIFTDDGENSGGSIFELQCTATAALPQSDVIGSQFCEVQGVRGAGQWDLGWGWHMATQLMADAYETGDPRKNATLLYFRKTDDEPITPENTNEPYGESPISPAMGAYFNKKAYTDPALRKEYTNKGFWVNIRLIRYSDVVLMAAEAANEKNIPGEAVDYLEMVRARARGTNTNILPKITTNDQGELREAIRHERRVELGLEPDRFYDLVRWGIASEVLHAAGKVNYQDKNALLPLPQSEIDKSKGVLVQNPDY
# How the values were obtained:
# Assay in all cases: glycan array binding signal (z-score within array); higher = stronger binding
# Conditions in all cases: glycan notation: IUPAC condensed, linker removed
# Fuc(a1-2)Gal = target: Fuc(a1-2)Gal
# Summary of the method: (§1)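 The Consortium for Functional Glycomics database supplied 3228 glycan arrays, of which those lacking an available protein sequence were dropped. The binding signal, a within-array Z-score, was averaged across arrays of the same protein sequence and across linkers. Negative scores can be read as non-binding.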
# Fuc(a1-2)Gal(b1-3)GalNAc = target: Fuc(a1-2)Gal(b1-3)GalNAc
# Summary of the method: as §1
# [1] = target: Fuc(a1-2)Gal(b1-3)GalNAc(a1-3)[Fuc(a1-2)]Gal(b1-4)Glc
# Summary of the method: as §1
# [2] = target: Fuc(a1-2)Gal(b1-3)GalNAc(a1-3)[Fuc(a1-2)]Gal(b1-4)GlcNAc
# Summary of the method: as §1
# [3] = target: Fuc(a1-2)Gal(b1-3)GalNAc(b1-3)Gal
# Summary of the method: as §1
# [4] = target: Fuc(a1-2)Gal(b1-3)GalNAc(b1-3)Gal(a1-4)Gal(b1-4)Glc
# Summary of the method: as §1
# [5] = target: Fuc(a1-2)Gal(b1-3)GalNAc(b1-4)[Neu5Ac(a2-3)]Gal(b1-4)Glc
# Summary of the method: as §1
# Fuc(a1-2)Gal(b1-3)GlcNAc = target: Fuc(a1-2)Gal(b1-3)GlcNAc
# Summary of the method: as §1
# [6] = target: Fuc(a1-2)Gal(b1-3)GlcNAc(b1-2)Man(a1-3)[Fuc(a1-2)Gal(b1-3)GlcNAc(b1-2)Man(a1-6)]Man(b1-4)GlcNAc(b1-4)GlcNAc
# Summary of the method: as §1
# [7] = target: Fuc(a1-2)Gal(b1-3)GlcNAc(b1-2)Man(a1-3)[Fuc(a1-2)Gal(b1-3)GlcNAc(b1-2)Man(a1-6)]Man(b1-4)GlcNAc(b1-4)[Fuc(a1-6)]GlcNAc
# Summary of the method: as §1
# [8] = target: Fuc(a1-2)Gal(b1-3)GlcNAc(b1-3)Gal(b1-4)Glc
# Summary of the method: as §1
# [9] = target: Fuc(a1-2)Gal(b1-3)GlcNAc(b1-3)GalNAc
# Summary of the method: as §1
# [10] = target: Fuc(a1-2)Gal(b1-3)GlcNAc(b1-3)[Fuc(a1-2)Gal(b1-3)GlcNAc(b1-6)]GalNAc
# Summary of the method: as §1
# [11] = target: Fuc(a1-2)Gal(b1-3)GlcNAc(b1-3)[Gal(b1-4)GlcNAc(b1-6)]Gal(b1-4)Glc
# Summary of the method: as §1
# [12] = target: Fuc(a1-2)Gal(b1-3)GlcNAc(b1-3)[Neu5Ac(a2-6)Gal(b1-4)GlcNAc(b1-6)]Gal(b1-4)Glc
# Summary of the method: as §1
# [13] = target: Fuc(a1-2)Gal(b1-3)GlcNAc6S
# Summary of the method: as §1
# [14] = target: Fuc(a1-2)Gal(b1-3)[Fuc(a1-4)]GlcNAc
# Summary of the method: as §1
# [15] = target: Fuc(a1-2)Gal(b1-3)[Fuc(a1-4)]GlcNAc(b1-2)Man(a1-3)[Fuc(a1-2)Gal(b1-3)[Fuc(a1-4)]GlcNAc(b1-2)Man(a1-3)]Man(b1-4)GlcNAc(b1-4)GlcNAc
# Summary of the method: as §1
# [16] = target: Fuc(a1-2)Gal(b1-3)[Fuc(a1-4)]GlcNAc(b1-2)Man(a1-3)[Fuc(a1-2)Gal(b1-3)[Fuc(a1-4)]GlcNAc(b1-2)Man(a1-6)]Man(b1-4)GlcNAc(b1-4)[Fuc(a1-6)]GlcNAc(b1-4)[Fuc(a1-6)]GlcNAc
# Summary of the method: as §1
# [17] = target: Fuc(a1-2)Gal(b1-3)[Fuc(a1-4)]GlcNAc(b1-3)[Fuc(a1-3)[Gal(b1-4)]GlcNAc(b1-6)]Gal(b1-4)Glc
# Summary of the method: as §1
# [18] = target: Fuc(a1-2)Gal(b1-3)[Fuc(a1-4)]GlcNAc(b1-3)[Gal(b1-4)GlcNAc(b1-6)]Gal(b1-4)Glc
# Summary of the method: as §1
# Fuc(a1-2)Gal(b1-4)Glc = target: Fuc(a1-2)Gal(b1-4)Glc
# Summary of the method: as §1
# Fuc(a1-2)Gal(b1-4)Glc6S = target: Fuc(a1-2)Gal(b1-4)Glc6S
# Summary of the method: as §1
# Fuc(a1-2)Gal(b1-4)GlcNAc = target: Fuc(a1-2)Gal(b1-4)GlcNAc
# Summary of the method: as §1
# [19] = target: Fuc(a1-2)Gal(b1-4)GlcNAc(b1-2)Man
# Summary of the method: as §1
# [20] = target: Fuc(a1-2)Gal(b1-4)GlcNAc(b1-2)Man(a1-3)[Fuc(a1-2)Gal(b1-4)GlcNAc(b1-2)Man(a1-6)]Man(b1-4)GlcNAc(b1-4)GlcNAc
# Summary of the method: as §1
# [21] = target: Fuc(a1-2)Gal(b1-4)GlcNAc(b1-2)Man(a1-3)[Fuc(a1-2)Gal(b1-4)GlcNAc(b1-2)Man(a1-6)]Man(b1-4)GlcNAc(b1-4)[Fuc(a1-6)]GlcNAc
# Summary of the method: as §1
# [22] = target: Fuc(a1-2)Gal(b1-4)GlcNAc(b1-2)[Fuc(a1-2)Gal(b1-4)GlcNAc(b1-4)]Man(a1-3)[Fuc(a1-2)Gal(b1-4)GlcNAc(b1-2)Man(a1-6)]Man(b1-4)GlcNAc(b1-4)GlcNAc
# Summary of the method: as §1
# [23] = target: Fuc(a1-2)Gal(b1-4)GlcNAc(b1-3)Gal(b1-4)GlcNAc
# Summary of the method: as §1
# [24] = target: Fuc(a1-2)Gal(b1-4)GlcNAc(b1-3)Gal(b1-4)GlcNAc(b1-2)Man(a1-3)[Fuc(a1-2)Gal(b1-4)GlcNAc(b1-3)Gal(b1-4)GlcNAc(b1-2)Man(a1-6)]Man(b1-4)GlcNAc(b1-4)GlcNAc
# Summary of the method: as §1
binder,measurement,setting,value
B1,glycan array binding signal (z-score),Fuc(a1-2)Gal,-0.306
same,glycan array binding signal (z-score),Fuc(a1-2)Gal(b1-3)GalNAc,-0.359
same,glycan array binding signal (z-score),[1],-0.457
same,glycan array binding signal (z-score),[2],-0.418
same,glycan array binding signal (z-score),[3],-0.482
same,glycan array binding signal (z-score),[4],-0.295
same,glycan array binding signal (z-score),[5],-0.29
same,glycan array binding signal (z-score),Fuc(a1-2)Gal(b1-3)GlcNAc,-0.347
same,glycan array binding signal (z-score),[6],1.63
same,glycan array binding signal (z-score),[7],-0.46
same,glycan array binding signal (z-score),[8],-0.382
same,glycan array binding signal (z-score),[9],-0.373
same,glycan array binding signal (z-score),[10],-0.373
same,glycan array binding signal (z-score),[11],-0.378
same,glycan array binding signal (z-score),[12],-0.346
same,glycan array binding signal (z-score),[13],-0.298
same,glycan array binding signal (z-score),[14],-0.397
same,glycan array binding signal (z-score),[15],0.297
same,glycan array binding signal (z-score),[16],-0.263
same,glycan array binding signal (z-score),[17],-0.142
same,glycan array binding signal (z-score),[18],-0.161
same,glycan array binding signal (z-score),Fuc(a1-2)Gal(b1-4)Glc,-0.041
same,glycan array binding signal (z-score),Fuc(a1-2)Gal(b1-4)Glc6S,-0.117
same,glycan array binding signal (z-score),Fuc(a1-2)Gal(b1-4)GlcNAc,-0.376
same,glycan array binding signal (z-score),[19],-0.346
same,glycan array binding signal (z-score),[20],0.786
same,glycan array binding signal (z-score),[21],-0.142
same,glycan array binding signal (z-score),[22],0.361
same,glycan array binding signal (z-score),[23],-0.047
same,glycan array binding signal (z-score),[24],-0.038
